Laboratory results reported in PubChem BioAssay AID1452 (National Center for Advancing Translational Sciences (NCATS), 2008).
About 190 (0.13%) of roughly 150,000 compounds were called active. The shares of active, inactive and inconclusive entries below differ from those in the screen. The call rests on the fitted dose curve; in most records, active means well fitted inhibition curve with a large enough effect; inconclusive means small, poorly fitted or top-dose-only effect; inactive means flat fitted curve, though single readings scatter. Potencies beside an inconclusive call are fits to weak or partial responses and may not hold up.

Molecular target: Polyunsaturated fatty acid lipoxygenase ALOX12 (Homo sapiens) (UniProt P18054)
Assay: qHTS Assay for Inhibitors of 12-hLO (12-human lipoxygenase); further: nearly all actives have a fitted effect of over 55% in size
Conditions: purified 12-hLO, xylenol orange hydroperoxide absorbance; series mostly up to 57.1 µM; activity change, negative = inhibition: at the top concentration
Summary of the method: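 Purified human 12hLO (150 nM), preincubated 15 min with compound, then 40 uM arachidonic acid for 30 min, room temperature, Hepes pH 7.0 with 0.01% Triton X-100. Hydroperoxide detected by ferrous iron/xylenol orange; 573/405 nm absorbance ratio gives reaction progress.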
On the % scale 0 is the no-effect control and ±100 the full control effect; potency means the concentration at half of the fitted maximal effect; tags describe the fitted curve by direction and shape.

UniProt P18054, sequence (P18054 whole entry, looked up): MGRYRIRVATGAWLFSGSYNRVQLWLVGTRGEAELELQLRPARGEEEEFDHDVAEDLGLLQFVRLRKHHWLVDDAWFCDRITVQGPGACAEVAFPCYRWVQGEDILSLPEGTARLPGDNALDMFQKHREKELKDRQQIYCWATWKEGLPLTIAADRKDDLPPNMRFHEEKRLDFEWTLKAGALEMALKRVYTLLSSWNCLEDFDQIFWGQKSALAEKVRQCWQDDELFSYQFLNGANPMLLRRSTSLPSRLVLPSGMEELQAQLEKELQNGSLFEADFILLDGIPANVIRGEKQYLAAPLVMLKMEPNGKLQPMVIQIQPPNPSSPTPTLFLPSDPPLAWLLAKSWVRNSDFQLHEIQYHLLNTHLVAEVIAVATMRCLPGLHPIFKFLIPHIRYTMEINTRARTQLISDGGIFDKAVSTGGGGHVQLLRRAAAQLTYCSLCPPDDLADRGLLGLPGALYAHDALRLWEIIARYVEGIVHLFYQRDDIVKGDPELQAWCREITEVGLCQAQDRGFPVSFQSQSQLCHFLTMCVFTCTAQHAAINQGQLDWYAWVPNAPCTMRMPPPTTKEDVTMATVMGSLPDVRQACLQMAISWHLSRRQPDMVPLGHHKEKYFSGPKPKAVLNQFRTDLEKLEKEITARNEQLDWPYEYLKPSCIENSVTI

Potency, inconclusive:
Cc1noc(/C=C/N(C)C)c1S(=O)(=O)N1CCCC(C(=O)NCc2ccc(Cl)cc2)C1 (stereo unspecified) 35.5 µM [inhibitor, partial curve]
CC(C)NS(=O)(=O)c1ccc(NC(=S)NC(=O)c2ccc(-c3ccccc3)cc2)cc1 20 µM [inhibitor, partial curve]
O=C(Nc1ccc(Br)c(Cl)c1)c1ccco1 35.5 µM [inhibitor, single point]
CCc1cccc(CC)c1NC(=S)NCc1ccc2[nH]c(C)cc2c1 39.8 µM [inhibitor, single point]
CCCCCC/C(=N/O)c1ccccn1 7.08 µM [inhibitor, partial curve]
Oc1ccc(Nc2nc(-c3ccc(O)cc3)cs2)cc1 3.16 µM [inhibitor, full curve, poor fit]
O=C(NC(NC(=S)Nc1cccc(Cl)c1)C(Cl)(Cl)Cl)OCc1ccccc1 (stereo unspecified) 28.2 µM [inhibitor, single point]
Cc1ccc(-c2csc3nc[nH]c(=S)c23)cc1C 31.6 µM [inhibitor, single point]
CC1CCCCC1NC(=S)Nc1ccc(SC(F)F)cc1 (stereo unspecified) 35.5 µM [inhibitor, single point]
O=C(NC(=S)Nc1ccc2c(c1)OCCO2)c1ccccc1 22.4 µM [inhibitor, single point]
CCn1c2ccccc2c2cc(CN3CCN(C(=O)c4ccco4)CC3)ccc21 17.8 µM [inhibitor, partial curve]
CCOC(=O)CNC(c1ccccc1)c1cc(Br)ccc1NC(=O)CCN1CCOCC1 (stereo unspecified) 20 µM [inhibitor, partial curve]
COc1ccc(Nc2nc(NCc3ccco3)nc(N/N=C/c3ccc(O)cc3)n2)cc1 39.8 µM [inhibitor, single point]
Cc1coc(C)c1C(=O)CC1(O)C(=O)Nc2cc(Cl)cc(Cl)c21 (stereo unspecified) 7.94 µM [inhibitor, partial curve]
CC(C)Oc1c(Br)cc(Br)cc1/C=N/NC(N)=S 25.1 µM [inhibitor, single point]
Cc1ccc(C2C(C#N)=C(N)Oc3c2sc2ccccc32)o1 (stereo unspecified) 22.4 µM [inhibitor, single point]
COc1ccc(CNc2nc3c(c(=O)n(Cc4ccc(Cl)cc4)c(=O)n3C)n2C)cc1 5.62 µM [inhibitor, partial curve]
Cc1ccc(C2=N/C(=C\c3cccs3)C(=O)N2Nc2ccccc2)cc1 15.8 µM [inhibitor, partial curve]
Cc1n[nH]c(=S)n1/N=C/c1ccc(OCc2ccc(Cl)cc2)cc1 20 µM [inhibitor, partial curve]
CCNC(=S)NNC(=S)NCc1ccccc1 35.5 µM [inhibitor, single point]
COc1ccc(Nc2cccccc2=O)cc1 31.6 µM [inhibitor, partial curve]
CCOC(=O)c1cc(C)sc1NC(=S)Nc1ccccc1 22.4 µM [inhibitor, partial curve, poor fit]
Cc1cccc(C)c1NC(=S)N/N=C/c1ccc(OCCC(C)C)cc1 31.6 µM [inhibitor, single point]
O=C1OCC(CO)(CO)N=C1NNc1cc(Cl)ccc1Cl 15.8 µM [inhibitor, partial curve]
COc1ccc(NC2=NCC(Cc3ccc(Br)cc3)S2)cc1 (stereo unspecified) 3.16 µM [inhibitor, full curve]
NC(=O)c1c(NC(NC(=O)c2ccco2)C(=O)c2ccc(Cl)cc2)sc2c1CCCC2 (stereo unspecified) 17.8 µM [inhibitor, partial curve]
CCOC(=O)Cc1csc(NC(=O)NC2(C(F)(F)F)Oc3cc(Cl)c(Cl)cc3O2)n1 2.51 µM [inhibitor, partial curve]
CCOc1cc(NC(=S)NCC2CCCO2)c(OCC)cc1NC(=O)c1ccccc1C (stereo unspecified) 28.2 µM [inhibitor, single point]
Cc1ccc(NC(=S)NC(=O)c2ccc(F)cc2)cc1S(=O)(=O)Nc1ccccc1Cl 15.8 µM [inhibitor, partial curve]
Cc1ccc(CN2C(=O)C3CCCN3c3ccc(C#N)cc32)cc1 (stereo unspecified) 5.01 µM [inhibitor, partial curve]
Cc1c(Cl)cccc1NC(=S)NCc1ccc2c(c1)OCO2 31.6 µM [inhibitor, single point]
COc1nccnc1NS(=O)(=O)c1ccc(NC(=S)NC(=O)/C=C/c2ccc(F)cc2)cc1 20 µM [inhibitor, single point]
Cc1[nH]nc(-c2ccc(O)cc2O)c1-c1ccc(Cl)cc1 15.8 µM [inhibitor, partial curve]
C=CCc1ccccc1OCC(=O)N/N=C/c1ccc(OC(C)=O)cc1OC(C)=O 10 µM [inhibitor, single point]
Clc1ccc(CSc2nccn2Cc2ccccc2)cc1 15.8 µM [inhibitor, partial curve]
CCCCc1ccc(C2C(C#N)=C(N)SC(N)=C2C#N)s1 15.8 µM [inhibitor, partial curve]
O=C(CSc1nc2cc([N+](=O)[O-])ccc2n1-c1ccccc1)NCc1ccc2c(c1)OCO2 3.55 µM [inhibitor, partial curve]
COCCn1c(C)cc(C2=NNC(=Nc3ccc(F)cc3)SC2)c1C 22.4 µM [inhibitor, single point]
O=[N+]([O-])c1ccc(N/N=C2/CCCCC2c2ccccn2)cc1 (stereo unspecified) 31.6 µM [inhibitor, single point]
Cc1ccc(/C=C/C(=O)Nc2ccc([N+](=O)[O-])cc2)o1 25.1 µM [inhibitor, partial curve]
COc1cc(CN2C(=S)NC(C)(C)CC2(C)O)cc(OC)c1 (stereo unspecified) 12.6 µM [inhibitor, partial curve]
CCC(=O)NC(=S)Nc1cccc(Cl)c1N1CCCCC1 12.6 µM [inhibitor, partial curve]
CC1CCCN(C(C(=O)NC2CCCCC2)c2cc3c(cc2[N+](=O)[O-])OCO3)C1 (stereo unspecified) 28.2 µM [inhibitor, single point]
COc1ccc2nc(NC(=O)c3cccc(OCc4c(C)noc4C)c3)sc2c1 12.6 µM [inhibitor, partial curve]
CCNC(=S)Nc1scc(-c2ccccc2)c1C(=O)OCC 25.1 µM [inhibitor, single point]
O=S(=O)(c1ccc(NC(=S)NCCC(c2ccccc2)c2ccccc2)cc1)N1CCOCC1 25.1 µM [inhibitor, single point]
Nc1nonc1C(=O)NCCN=Cc1cc(Cc2ccccc2)cc(Br)c1O 20 µM [inhibitor, partial curve]
O=C(Nc1nnc(-c2ccccc2Cl)o1)c1ccco1 25.1 µM [inhibitor, single point]
COc1ccc(C(=O)/C=C\N2CCOCC2)cc1 25.1 µM [inhibitor, partial curve]
CCOc1ccc(NS(=O)(=O)c2ccc(NC(=S)NC(=O)C(C)C)cc2)cc1 39.8 µM [inhibitor, single point]

Activity change, negative = inhibition, inactive:
CCCCCCn1c(CN2CCN(C)CC2)nc2c1c(=O)n(C)c(=O)n2C 19.3%
Cc1cccc(CNc2ccnc(-c3ccoc3)n2)c1 -28%
COc1cc2c(=O)n(Cc3ccco3)c(=O)n(CC(=O)c3cccc(Br)c3)c2cc1OC 1.23%
O=C(NC1CCCCCC1)c1ccccc1-c1ccccc1 -4.32%
CCOc1ccccc1C1CC(=O)Nc2cc(OC)c(OC)c(OC)c21 (stereo unspecified) 5.08%
Cc1cc(-c2n[nH]c(=S)n2-c2ccccc2)nn1C 0.169%
Cc1ccc2[nH]cc(C(=O)NCc3cccs3)c(=O)c2c1 0.662%
CCCN(CCC)c1ncnc2nc[nH]c12 2.25%
Cc1ccc(-n2nc(C)c(NC(=O)CCl)c2C)cc1C -1.02%
O=c1c2ccccc2nc(COc2ccccc2)n1/N=C/c1cn[nH]c1-c1ccccc1 5.33%
COc1ccc(C(=O)N2CCCc3ccccc32)cc1 3.44%
CCC(=O)N=c1n(C)c2ccccc2n1CCOc1ccccc1 4.24%
Cc1nnc2n1NC(c1ccc(Cl)cc1)C(C(=O)N1CCC(C)CC1)S2 (stereo unspecified) -2.31%
COc1cccc(/C=N/NC(=O)c2cc3c(OC)cccc3[nH]2)c1OC -3.78%
Oc1ccc(N2CCN(C(=S)NCCc3ccccc3)CC2)cc1 -9.52%
Nn1c(Cc2cccc3ccccc23)nnc1SCn1nnc2ccccc2c1=O -2.26%
C[C@@]12CCC3c4ccc(OS(=O)(=O)O)cc4CCC3C1CCC2O (stereo partly specified) -3.47%
Nc1[nH]nc2nc3ccccc3nc12 -3.08%
O=C(c1cc(-c2cccs2)on1)N1CCN(c2ccc(F)cc2)CC1 0.996%
NS(=O)(=O)c1ccc(S(=O)(=O)NCCc2ccccc2)cc1 2.06%
O=C(Oc1ccc(-c2ccccc2)cc1)N1CCCCC1 -7.31%
